# Results: article PMC5836133
# This is one part of the list. At the low end of the ranking, values are background and their order means little.
# Test system: T1, GST-NbGlk1(82-244)
# T1 sequence: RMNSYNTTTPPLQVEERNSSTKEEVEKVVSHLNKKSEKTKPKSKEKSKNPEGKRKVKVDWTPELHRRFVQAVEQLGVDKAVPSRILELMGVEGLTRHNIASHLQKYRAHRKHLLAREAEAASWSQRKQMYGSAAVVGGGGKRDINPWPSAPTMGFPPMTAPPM
# Test: protein-binding microarray;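 also: rank-based score ranging −0.5 to +0.5 with E above 0.45 taken as significant binding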
# Details: NbGlk1 is a Golden2-like transcription factor of Nicotiana benthamiana; high values mean tight binding; most listed sequences are background and not binding sites; double strand, one strand shown
row,Sequence,binding signal [E-score]
1,AGTATCAT,0.11
2,CAAAGTTC,-0.0425
3,AGTATAAT,0.233
4,AAGCAAGG,-0.0556
5,ACCTGGAC,-0.299
6,AACGAAGA,0.0508
7,AATTATGT,0.0878
8,ATAATGCG,0.0234
9,AATTCCCA,0.151
10,ACTGGAAA,0.121
11,ACAGACCG,-0.0783
12,ACGCGTCT,-0.165
13,ACAAGCTA,-0.0787
14,AACATAAC,-0.0047
15,ACGTAGGG,-0.118
16,AGCCGTAT,0.0187
17,ATCGTGCC,0.155
18,AGTCACGG,-0.123
19,ATAATCGG,0.097
20,CACTAAGC,-0.0943
21,ATTGAATA,0.103
22,ATTAGTAG,0.0824
23,AAGCATCC,-0.119
24,ACGAAATG,0.0869
25,AGGAGACA,-0.131

row,Sequence,binding signal [E-score]
1,AAGATCAC,0.225
2,AATATTGG,0.202
3,AGATGCGC,-0.0729
4,AACAAAGG,-0.0804
5,AGACATAA,-0.193
6,ATACGGAC,0.123
7,CACTCACG,-0.0672
8,AGCGGGAA,-0.158
9,ACGTCGGG,-0.124
10,AGACCCAC,-0.267
11,AGTTGTAC,-0.0969
12,ATTGAGGC,-0.0636
13,ATGGATAC,0.25
14,ACGTGACG,-0.254
15,ACAGACTC,-0.339
16,ATTTCCGG,0.295
17,AACGGGAC,-0.221
18,AGTTAGAA,-0.0448
19,CACCGTGC,-0.175
20,CAATCGAG,0.126
21,AGGTAGTC,-0.141
22,ATTCCCAG,0.291
23,ACGTCCGC,-0.181
24,AAATAACT,0.127
25,AGGTCATA,-0.111

row,Sequence,binding signal [E-score]
1,ATGGGTAG,-0.0489
2,ATTATCCC,0.261
3,AAGGAGAT,0.261
4,AGCACCAC,-0.232
5,ATGATCTG,0.0086
6,AAAAATCA,0.336
7,AACGAACT,-0.101
8,ACCGTTCT,-0.0678
9,AGACAGGG,-0.139
10,AGAAATGC,-0.000669
11,ATCTCAGG,0.277
12,ATTCAAAG,0.0452
13,ATGGGATG,-0.148
14,AAATTGCA,0.121
15,ACGCCCTC,-0.204
16,AGCTACGC,-0.163
17,AGCACCTA,-0.0678
18,AGCCCTTC,-0.257
19,AGCTCTAT,-0.181
20,AATCACAC,0.286
21,ACGTGAGC,-0.0927
22,AACTCCTT,-0.104
23,AAGCGTTA,0.0051
24,AACGTATC,0.322
25,AGCGAGGG,-0.248

row,Sequence,binding signal [E-score]
1,ACTTCGTC,-0.183
2,ACACGGAA,0.0504
3,ACGTGATC,0.232
4,ATAAATCG,0.182
5,AGAGGTGG,-0.153
6,ATATGAGA,0.231
7,ATCCGGCC,0.258
8,AGTGGAAC,-0.109
9,AAAGACGC,-0.162
10,ATTGTCTC,0.105
11,CAAGAGGA,0.0323
12,ACGCGTGA,0.109
13,ACAGTGCC,-0.193
14,AGTACATG,-0.0841
15,AGAAACAA,-0.0208
16,AGATAGAG,-0.0715
17,CACATTAG,-0.00304
18,ATCGTTAG,-0.0561
19,ATATCGGC,0.354
20,CAAGTACA,-0.00628
21,ATTTATAA,0.229
22,ACTATGCA,0.115
23,ACACCATA,0.0878
24,ACATTTCC,0.0737
25,AATATAGT,0.131

row,Sequence,binding signal [E-score]
1,ATAGTCAA,0.0472
2,AATTCTAA,0.19
3,AGATTTGA,0.327
4,AAATCTAA,0.45
5,AGGACTTG,-0.1
6,AATACATA,0.161
7,AACACCAC,-0.105
8,AAATCCGG,0.441
9,AGCCATAC,-0.154
10,AAGTAACC,-0.079
11,ACCACGAA,-0.0301
12,ATTACTGG,0.107
13,ACTGATCG,0.145
14,AGTAGGCC,-0.257
15,ACGCGCGT,0.045
16,ACAGGCAA,0.105
17,ACGCGGAT,0.235
18,ACCGGTAG,-0.0228
19,ACTAACAA,-0.0462
20,CACATTCG,0.0521
21,AAGCGGGC,-0.228
22,ACGTATAT,0.133
23,ACCATTCA,0.0128
24,ACAGCTGT,-0.112
25,AAATTACA,0.281

row,Sequence,binding signal [E-score]
1,CAGAGAAG,0.0407
2,CACTTAAC,-0.0168
3,AGTCCTAT,-0.175
4,ACGCTCAA,-0.0262
5,ACCCGAGT,-0.173
6,ACGGCAAG,-0.0798
7,ATCACCTG,-0.0338
8,ATCACAGC,0.171
9,ATTCGAGG,0.0807
10,AGTTACCA,-0.0411
11,ATATATAC,0.227
12,AATGAGGC,-0.172
13,ACTATGGG,-0.0927
14,ATACCACA,0.0878
15,ATTTGTCC,0.0894
16,ACCGCCAT,-0.0581
17,CACGTCAA,-0.0566
18,ATGTGTGC,-0.0361
19,CAACCAAG,-0.101
20,AAAAATAA,0.229
21,ATGATCCG,0.101
22,CAAGCGCC,-0.253
23,ACAAGTCC,-0.231
24,AATGAGAT,0.312
25,AACGTTCA,-0.169

row,Sequence,binding signal [E-score]
1,AATCTCCG,0.437
2,ACGCCATG,-0.0715
3,ACTTACGA,0.151
4,AAGGACTC,-0.256
5,ATTTGTAA,0.266
6,ACTGAATC,0.157
7,ATCAAGCG,0.0915
8,ACCGCCCA,-0.291
9,ACATCTTC,0.0604
10,AATAACGC,-0.0245
11,ACGTTGAA,-0.0192
12,AGATTCGC,0.482
13,AATGCTCG,-0.17
14,ATGAAGAC,-0.0547
15,CACTACTA,0.0218
16,AACATCAT,0.000137
17,ATCAACCG,-0.117
18,AGCCAGAC,-0.121
19,ACTCTGGG,0.0676
20,AAATGTAA,0.141
21,CACGACAG,-0.229
22,ACTTTCCA,-0.0206
